Laboratory results taken from a collection of fitness landscapes (doi:10.1126/science.1257360).
This is one part of the list.

B1: PhoQ; a variant is named by its letters at X, in order, P23837 (parent)
chain: MKKLLRLFFPLSLRVRFLLATAAVVLVLSLAYGMVALIGYSVSFDKTTFRLLRGESNLFYTLAKWENNKLHVELPENIDKQSPTMTLIYDENGQLLWAQRDVPWLMKMIQPDWLKSNGFHEIEADVNDTSLLLSGDHSIQQQLQEVREDDDDAEMTHSVAVNVYPATSRMPKLTIVVVDTIPVELKSSYMVWSWFIYVLSANLLLVIPLLWVAAWWSLRPIEALAKEVRELEEHNRELLNPATTRELTSLVRNLNRLLKSERERYDKYRTTLTDLTHSLKTPLXXLQXXLRSLRSEKMSVSDAEPVMLEQISRISQQIGYYLHRASMRGGTLLSRELHPVAPLLDNLTSALNKVYQRKGVNISLDISPEISFVGEQNDFVEVMGNVLDNACKYCLEFVEISARQTDEHLYIVVEDDGPGIPLSKREVIFDRGQRVDTLRPGQGVGLAVAREITEQYEGKIVAGESMLGGARMEVIFGRQHSAPKDE

Variants of: B1
Experiment: enrichment ratio after two sorts for PhoP signalling (ratio (wild type AVST 3.29)); higher = more functional
Conditions: with PhoP (E. coli)

Variant | enrichment ratio
NEAP | ≤ 0.25
NVTY | ≤ 0.25
GEYC | ≤ 0.25
VEKS | ≤ 0.25
ALCF | 13.2
SPAM | ≤ 0.25
VKYP | ≤ 0.25
FRSV | ≤ 0.25
DKFV | ≤ 0.25
QASY | ≤ 0.25
WVFQ | ≤ 0.25
KEII | ≤ 0.25
YQGW | ≤ 0.25
EKKA | ≤ 0.25
IPSR | ≤ 0.25
LEGY | ≤ 0.25
KAPV | ≤ 0.25
HKPR | ≤ 0.25
PHMH | ≤ 0.25
FRNG | ≤ 0.25
LIFY | ≤ 0.25
DQLL | ≤ 0.25
KYKQ | ≤ 0.25
LDKR | ≤ 0.25

Variant | enrichment ratio
DSGY | ≤ 0.25
QYHM | ≤ 0.25
HQDA | ≤ 0.25
RGED | ≤ 0.25
MMEV | ≤ 0.25
INFK | ≤ 0.25
PKWC | ≤ 0.25
GDVT | 5.28
SCRA | ≤ 0.25
TQMT | 14.6
VWTV | ≤ 0.25
PIDN | ≤ 0.25
AWVN | ≤ 0.25
EFQG | ≤ 0.25
AFYM | ≤ 0.25
YDFD | ≤ 0.25
YAHW | ≤ 0.25
GTLL | 12.4
NKDF | ≤ 0.25
TDGH | 1.65
IEHT | ≤ 0.25
MVQC | ≤ 0.25
EDNM | ≤ 0.25
IYKP | ≤ 0.25

Variant | enrichment ratio
DDCK | ≤ 0.25
FRAF | ≤ 0.25
WPKF | ≤ 0.25
DIIF | ≤ 0.25
DFQN | ≤ 0.25
MWRL | ≤ 0.25
VAWG | ≤ 0.25
ISRI | ≤ 0.25
HPEQ | ≤ 0.25
HQCM | 6.76
MLSC | ≤ 0.25
KTCF | ≤ 0.25
RTLY | ≤ 0.25
GEQH | ≤ 0.25
SCNS | ≤ 0.25
VGCN | ≤ 0.25
PYTP | ≤ 0.25
KPNS | ≤ 0.25
EGYC | ≤ 0.25
IIYE | ≤ 0.25
WGAR | ≤ 0.25
GDLR | ≤ 0.25
SQYI | ≤ 0.25
YGVD | ≤ 0.25

Variant | enrichment ratio
PEYP | ≤ 0.25
VDFC | ≤ 0.25
YYRE | ≤ 0.25
WPHK | ≤ 0.25
EFKI | ≤ 0.25
FSFN | ≤ 0.25
DDIG | ≤ 0.25
KCAP | ≤ 0.25
LIHW | ≤ 0.25
AELM | 2.01
TEFS | 10.9
FFQT | ≤ 0.25
FPQG | ≤ 0.25
KDPR | ≤ 0.25
PDSE | ≤ 0.25
TCCG | 3.92
MYIC | ≤ 0.25
FLNG | ≤ 0.25
WDFN | ≤ 0.25
GSDD | ≤ 0.25
HDYD | ≤ 0.25
FCTT | ≤ 0.25
VNGQ | ≤ 0.25
NEDR | ≤ 0.25

Variant | enrichment ratio
GWVW | ≤ 0.25
RSSM | ≤ 0.25
SMHT | ≤ 0.25
SCVM | 8.76
SIQG | 7.09
NATE | ≤ 0.25
EYSY | ≤ 0.25
FGAH | ≤ 0.25
EPRP | ≤ 0.25
NQEH | ≤ 0.25
WHRF | ≤ 0.25
QECF | ≤ 0.25
PKNA | ≤ 0.25
EYFF | ≤ 0.25
TLYV | 0.293
KHAY | ≤ 0.25
YRIC | ≤ 0.25
KRNP | ≤ 0.25
MTTM | 18.5
QAHH | ≤ 0.25
YAHR | ≤ 0.25
PMDF | ≤ 0.25
QQWG | ≤ 0.25
EIGC | ≤ 0.25

Variant | enrichment ratio
DYQI | ≤ 0.25
TGVW | ≤ 0.25
IPVL | ≤ 0.25
WCSW | ≤ 0.25
NEIC | ≤ 0.25
RAIG | ≤ 0.25
WYTK | ≤ 0.25
PNNI | ≤ 0.25
HDCP | ≤ 0.25
YHED | ≤ 0.25
ETSN | ≤ 0.25
GSIY | 2.3
YTCQ | 1.7
SMRV | ≤ 0.25
GNCD | ≤ 0.25
MQYQ | 3.6
PHSW | ≤ 0.25
GPIY | ≤ 0.25
CGHF | ≤ 0.25
IQVE | ≤ 0.25
WQFD | ≤ 0.25
MQYM | ≤ 0.25
PTVT | ≤ 0.25
KCCG | ≤ 0.25

Variant | enrichment ratio
QECE | ≤ 0.25
PPHS | ≤ 0.25
PVQT | ≤ 0.25
EFFV | ≤ 0.25
EGGS | 1.42
LHHP | ≤ 0.25
DPAE | ≤ 0.25
VFSY | ≤ 0.25
PSHA | ≤ 0.25
ATNG | ≤ 0.25
DCRF | ≤ 0.25
RNLH | ≤ 0.25
WFKM | ≤ 0.25
ECWF | ≤ 0.25
KIVR | ≤ 0.25
GFAG | ≤ 0.25
CQPP | ≤ 0.25
NPPD | ≤ 0.25
WWSV | ≤ 0.25
LMAC | ≤ 0.25
YSMW | ≤ 0.25
TSKD | ≤ 0.25
RNNG | ≤ 0.25
SLLC | 7.49

Variant | enrichment ratio
LKIQ | ≤ 0.25
IPKS | ≤ 0.25
ENVF | ≤ 0.25
LQES | ≤ 0.25
FNCH | ≤ 0.25
MKNV | ≤ 0.25
WARH | ≤ 0.25
GRPY | ≤ 0.25
PKQT | ≤ 0.25
GCFI | ≤ 0.25
WCKA | ≤ 0.25
QAHE | ≤ 0.25
WCPI | ≤ 0.25
QEYE | 0.253
MPGA | ≤ 0.25
QSVH | 2.88
FWHR | ≤ 0.25
ELSN | ≤ 0.25
DGKC | ≤ 0.25
ISCK | ≤ 0.25
QMYH | ≤ 0.25
